Measured values reported in the supplement of paper PMC12217912.
This is one part of the list. The full chains were built here from the parent and the listed change. Values near 0.05 are background.

B1: TEV protease; numbered along this chain (parent)
chain: MGESLFKGPRDYNPISSSICHLTNESDGHTTSLYGIGFGPFIITNKHLFRRNNGTLVVQSLHGVFKVKDTTTLQQHLVDGRDMIIIRMPKDFPPFPQKLKFREPQREERICLVTTNFQTKSMSSMVSDTSCTFPSGDGIFWKHWIQTKDGQCGSPLVSTRDGFIVGIHSASNFTNTNNYFTSVPKNFMELLTNQEAQQWVSGWRLNADSVLWGGHKVFMVKPEEPFQPVKEATQL

Variants of: B1
Experiment: raw area under fraction-flipped curve 0-4 h after induction (AUC4h, not background-subtracted), DNA-recorder readout of cleavage of the substrate (dimensionless); higher = more cleavage of the substrate by the protease variant
Conditions: temperature: 34 °C; time window: 0-4 h after rhamnose induction
Procedure: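 In vivo DNA recorder in E. coli TOP10(DE3) ΔrhaA at 34 °C. Each TEVp single-site mutant (parent TEVp 0) is paired with a single-site variant of the 7-mer TEVs (canonical ENLYFQ|S). The substrate sits between flexible linkers in a Bxb1-sfGFP-TEVs-SsrA fusion, so cleavage stabilises Bxb1 and speeds flipping of a recombination array, read by NGS. The value is the raw area under the fraction-flipped curve over 0-4 h after rhamnose induction (AUC4h), with ≥20 reads per time point. It is not background-subtracted; inactive controls average about 0.047.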
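Further: Bxb1 expression induced with 0.2% (w/v) L-rhamnose at OD600 near 0.5, cultures sampled hourly, flipped fraction per protease–substrate barcode pair counted by paired-end Illumina sequencing.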

Variant | area with substrate ENLYAQS | area with substrate ENLYCQS | area with substrate ENLYDQS | area with substrate ENLYEQS | area with substrate ENLYGQS | area with substrate ENLYHQS | area with substrate ENLYIQS | area with substrate ENLYKQS | area with substrate ENLYLQS | area with substrate ENLYMQS | area with substrate ENLYPQS | area with substrate ENLYQQS | area with substrate ENLYRQS | area with substrate ENLYSQS | area with substrate ENLYTQS | area with substrate ENLYYQS | area with substrate ENLYNQS | area with substrate ENLYVQS | area with substrate ENLYWQS
D137R | 0.0617 | 0.0754 | 0.0557 | 0.0629 | 0.0669 | 0.0621 | 0.114 | 0.0461 | 0.0618 | 0.0706 | 0.0629 | 0.101 | 0.0837 | 0.0725 | 0.0666 | 0.0544 | – | – | –
K148G | 0.0762 | – | – | 0.0673 | 0.0543 | 0.0555 | 0.118 | 0.0419 | 0.0846 | 0.0672 | 0.064 | 0.0725 | 0.0662 | 0.0714 | 0.0594 | 0.0371 | 0.0579 | 0.0764 | 0.0633
S127P | 0.0366 | 0.117 | 0.0627 | 0.0707 | 0.064 | 0.0717 | 0.118 | 0.0686 | 0.0855 | – | 0.0817 | 0.0812 | 0.0444 | 0.0681 | – | – | 0.0863 | – | 0.13
S127D | 0.0644 | – | – | – | 0.0555 | 0.0705 | 0.138 | 0.054 | – | 0.0811 | – | 0.0829 | 0.0736 | 0.0824 | 0.0794 | 0.0562 | – | 0.0835 | 0.0748
S135A | 0.0606 | 0.0746 | 0.0601 | 0.066 | 0.102 | 0.0642 | 0.0883 | 0.0715 | 0.0642 | 0.0539 | 0.0615 | – | 0.0566 | – | – | – | 0.0676 | 0.0609 | 0.0606
R102A | 0.0518 | 0.0587 | 0.0524 | 0.0552 | 0.0595 | 0.0534 | 0.0553 | 0.0534 | – | 0.0636 | 0.0509 | 0.0589 | 0.0663 | 0.0633 | 0.0632 | – | 0.057 | – | 0.0743
R102C | 0.0539 | – | 0.0509 | 0.051 | – | 0.0527 | – | 0.0723 | 0.0558 | – | 0.0551 | 0.0388 | 0.0486 | 0.0548 | – | – | 0.0523 | 0.0659 | 0.0638
R102T | 0.0496 | – | – | – | 0.058 | 0.0453 | – | 0.0333 | – | 0.0533 | – | – | 0.0402 | 0.0524 | 0.0672 | 0.0457 | 0.0488 | 0.0506 | 0.0503
V78S | 0.0752 | – | 0.0584 | – | 0.0568 | – | 0.0834 | 0.0565 | 0.0689 | 0.039 | 0.0743 | 0.0329 | 0.0529 | – | 0.0641 | 0.0697 | 0.0475 | 0.0556 | 0.0785
V78C | 0.075 | 0.0762 | 0.0669 | 0.0667 | 0.057 | 0.0717 | – | 0.0649 | 0.0909 | 0.0816 | 0.0751 | 0.0642 | – | 0.0649 | 0.0699 | 0.0217 | 0.0628 | 0.103 | –
S123A | 0.0819 | – | – | 0.0584 | 0.0565 | 0.0695 | – | 0.0654 | – | 0.0758 | – | 0.0652 | 0.0538 | – | 0.112 | 0.0568 | 0.0824 | – | 0.0871
V113P | 0.07 | 0.0829 | 0.0612 | 0.0536 | – | 0.0669 | 0.0777 | 0.0591 | 0.0586 | 0.0649 | 0.0519 | 0.0499 | 0.0584 | 0.0501 | 0.0319 | 0.0451 | 0.0577 | 0.0834 | 0.0712
N116D | 0.0747 | – | 0.0643 | 0.0642 | 0.0717 | 0.0599 | 0.122 | 0.0602 | – | – | 0.0716 | 0.069 | – | – | 0.0816 | 0.0779 | 0.0808 | 0.0973 | 0.0718
T129W | 0.066 | 0.082 | 0.0575 | 0.0753 | 0.0646 | 0.0646 | 0.117 | 0.045 | – | 0.0971 | 0.0752 | 0.0454 | 0.0523 | 0.0932 | 0.0835 | – | 0.0658 | 0.117 | 0.0887
E108T | 0.0462 | 0.0476 | 0.0461 | 0.0564 | 0.0497 | 0.0454 | – | – | – | 0.0558 | 0.06 | 0.0445 | 0.0531 | 0.0811 | – | – | 0.042 | 0.0909 | 0.087
K100L | 0.0497 | – | – | 0.0658 | – | – | 0.12 | 0.0181 | 0.119 | – | 0.0589 | – | – | – | – | 0.0627 | 0.0869 | 0.128 | 0.0815
K100E | 0.0662 | – | – | 0.071 | 0.062 | 0.0691 | 0.117 | 0.0595 | – | 0.0888 | 0.0908 | 0.0431 | 0.0572 | 0.071 | 0.0655 | – | 0.0715 | – | 0.0769
K100V | 0.0592 | – | 0.0619 | 0.0723 | 0.0678 | 0.0711 | 0.0836 | 0.037 | – | – | 0.0751 | 0.0629 | 0.0647 | – | – | 0.0762 | 0.0572 | 0.107 | 0.0943
E107A | 0.0753 | 0.0583 | 0.0458 | 0.0643 | – | 0.0775 | 0.116 | 0.0646 | – | 0.0671 | 0.077 | 0.0511 | 0.0712 | – | – | 0.0978 | – | 0.122 | 0.098
I145D | 0.0556 | – | – | 0.066 | 0.0535 | 0.0567 | – | 0.0377 | 0.0571 | 0.0384 | – | – | 0.0451 | 0.0595 | 0.0606 | 0.0685 | 0.0535 | 0.0559 | 0.0562
I145F | 0.119 | – | – | – | 0.0558 | – | – | – | – | 0.0715 | 0.0863 | – | – | – | – | – | 0.0877 | 0.0543 | –
I139S | 0.0631 | – | 0.0505 | 0.0586 | 0.0451 | 0.071 | 0.0813 | 0.0557 | 0.0659 | 0.08 | 0.0657 | 0.064 | 0.0684 | 0.0741 | 0.0459 | 0.0537 | 0.0674 | 0.135 | 0.0887
I139G | 0.0888 | – | – | 0.0665 | 0.082 | 0.0493 | 0.0535 | 0.0662 | 0.0766 | 0.0696 | 0.059 | – | 0.0548 | – | 0.0536 | 0.0613 | 0.0691 | 0.092 | 0.0749
M122E | 0.0713 | – | – | 0.0693 | 0.0645 | 0.068 | – | 0.077 | – | 0.0682 | – | 0.0565 | 0.0229 | 0.0736 | – | – | 0.079 | 0.122 | 0.0964
M122Q | 0.0646 | 0.103 | 0.0698 | 0.0775 | 0.0708 | 0.0648 | 0.123 | 0.0572 | 0.0769 | 0.0867 | 0.0806 | – | 0.0381 | 0.0666 | 0.0701 | 0.0883 | 0.0771 | 0.101 | 0.0785
